The record followed here is ChEMBL document CHEMBL1156829.

In all, about 5,400 compounds were measured (“IFI”: median about 2, highest 2% from about 22 on). The list shows a part of the results.

The assay in a line: NOVARTIS: Inhibition Frequency Index (IFI) - the number of HTS assays where a compound showed > 50% inhibition/induction, expressed as a percentage of the number of assays in which the compound was tested. In kind it is functional.
With `CCN1/C(=C/c2sc3ccc(Br)cc3[n+]2CC)C=Cc2ccccc21`, the IFI is 15.4%.

`CN1CCC(NCCc2ccc(Cl)cc2)CC1` gave an IFI of 2.94%.

As for `O=C(Nc1cccnc1)c1cc(-c2cccnc2)nc2ccc(Br)cc12`, the IFI was 0%. To `Cc1nc(N2CCC(C)CC2)c2c(C)c(C(=O)Nc3ccc(F)cc3)sc2n1` belongs 1.18%; to `Cc1ccc2c(Cl)c(C(=O)N3CC(C)OC(C)C3)sc2c1` (centres undefined), 0%.

Take `COc1cccc(OC)c1C(=O)Nc1cc(C(F)(F)F)ccc1Cl`: the IFI amounted to 1.45%. To `Cc1ccc(N2CCN(CCNCc3ccc(F)cc3)[C@@H](Cc3ccc(O)cc3)C2)cc1` belongs 2.47%. For `CCOC(=O)C1=C(C)NC2=C(C(=O)C(C(=O)OC)C(C)C2)C1c1cc(Br)c(OC)c(OCC)c1` (centres undefined) the value was 4.65%; for `N=c1c2c(n(Cc3ccc([N+](=O)[O-])cc3)c3c1CCC3)CCCC2`, 0%; for `Clc1ccc(Nc2nc(NCc3ccco3)c3ccccc3n2)cc1`, 14.3%. In the case of `CC[n+]1c(/C=C/C=C2\N(C)c3ccccc3C2(C)C)n(-c2ccccc2)c2ccc(C)cc21`, the IFI amounted to 21.4%. As for `CCCOC(=O)C1=C(C)NC2=C(C(=O)CC(c3ccc(OC)c(OC)c3)C2)C1c1ccccc1C` (centres undefined), the IFI is 3.53%.

`C=CCNc1cc(-c2ccccn2)nc(-c2ccccn2)n1`: the IFI was found to be 7.69%.

For `Cc1ccc(C=NNC(=O)c2nnn(-c3nonc3N)c2-c2ccc([N+](=O)[O-])cc2)cc1`, the IFI turned out to be 0%. `NC(=O)c1ccc2c(c1)N=C(/C=C/c1ccccc1)N(C1CC1)C2` displayed an IFI of 7.41%. As for `CCOC(=O)c1c(S(=O)(=O)N2CCCC(C(=O)N3CCN(c4cccc(C)c4C)CC3)C2)c(C)n(C)c1C` (centres undefined), the IFI amounted to 0%. To `Cc1ccn2c(NC(C)(C)CC(C)(C)C)c(-c3ccccc3OC(=O)/C=C/c3ccc([N+](=O)[O-])cc3)nc2c1` belongs 2.8%; to `O=C(NCc1ccc(Cl)cc1)C1CNCC1c1ccc(C(F)(F)F)cc1` (centres undefined), 1.43%; to `CCOc1ccccc1C=NNc1nc(Nc2ccccc2)nc(Nc2ccccc2)n1`, 3.9%. With `COc1ccc(C2CC3=NC(C)=C(C(=O)OC(C)C)C(c4ccccc4Cl)C3=C(O)C2)cc1OC` (centres undefined), the IFI was 4.76%.

In the case of `COc1cc(NC(C)CCCN(Cc2ccc(OC)c(OC)c2)C(=O)c2ccc3ccccc3c2)c2ncccc2c1` (centres undefined), the IFI was 5.71%. Molecule `CC(C)(C)CC(C)(C)Nc1c(-c2ccccc2OC(=O)c2ccccc2)nc2ccccn12` displayed an IFI of 4.2%.

`COc1ccc(C(=O)n2nc(N)c3cc4ccc(C)cc4nc32)cc1[N+](=O)[O-]` registered an IFI of 0%. Molecule `CCCCc1ccc(C(=O)N(CCC(=O)Nc2nnc(-c3ccc(OC)cc3)s2)CCc2ccc(OC)c(OC)c2)cc1` yielded an IFI of 2.8%. For `COc1ccc(C2=Nc3cc(C(=O)NCCN4CCOCC4)ccc3CN2C(C)C)cc1` the value was 1.22%; for `COc1ccc(OC)c(-c2ccc(O)c(CNCCc3ccc(F)cc3)c2)c1`, 2.59%; for `CCOC(=O)C1=C(C)N(c2ccc(OCC)cc2)C(=O)/C1=C\c1ccc(C(C)C)cc1`, 3.53%.

Consider `CCOc1ccc2c(c1)sc(=NC(=O)Nc1ccc(OC)cc1)n2C`, for which the IFI is 0%. To `O=C(CNCCc1ccccc1)NC(c1ccccc1)c1ccccc1` belongs 1.82%; to `Cc1ccc2c(c1)N(CC(=O)NC1CCCCC1C)C(=O)CO2` (centres undefined), 0%. To `O=C(Nc1ccc(-c2nnc(-c3ccccc3)o2)cc1)c1ccc(Br)cc1` belongs 4.69%; to `C=CCn1nc(C(=O)N2CCCC2)c2c1CCC(N1CCCCCC1)C2` (centres undefined), 2.41%; to `COc1ccc2nc(C)cc(NN=Cc3cccc(OC)c3O)c2c1`, 7.69%. For `CCCCCCN(C(=O)COCc1ccccc1)C(CC)c1nc2ccccc2c(=O)n1-c1ccc(F)c(Cl)c1` (centres undefined) the value was 1.89%; for `O=C1c2ccccc2-c2nc3ccc(C(F)(F)F)cc3nc21`, 0%; for `CN(C)c1ccc(NC(=O)C2C3C=CC(O3)C2C(=O)O)cc1` (centres undefined), 0%. The molecule `COCCNC(=O)CN1C(=O)CC(C)(C)Sc2ccccc21` showed an IFI of 0%. To `Cc1cc(C)nc(Nc2nc(C)c3cc(C)c(C)cc3n2)n1` belongs 0%; to `CN(c1ccc(Cl)cc1)S(=O)(=O)c1ccc2[nH]cc(C(=O)NCCC3=CCCCC3)c(=O)c2c1`, 7.69%. Take `Cc1ccc(Sc2c(C)nn(C(=O)c3cccnc3)c2C)cc1`: the IFI came to 0%.

In turn, `O=C(N/C(=C/C=C/c1ccccc1)C(=O)N1CCOCC1)c1ccccc1` had an IFI of 0%. Regarding `Cn1c(NN=Cc2ccccc2)cc(=O)n(C)c1=O`, the IFI worked out at 2.29%. The molecule `Brc1ccc2[nH]c3nc4ccccc4nc3c2c1` displayed an IFI of 3.77%.

In the case of `CCOc1ccc2[nH]c(=O)c(CN(Cc3ccccc3OC)C(C)=O)cc2c1`, the IFI is 3.03%. To `CCN1CCC(NCCC(c2ccccc2)c2ccccc2)CC1` belongs 4.1%. On to `Cc1cn2c3ccccc3n(CCN3CCCC3)c2n1`, for which the IFI was determined as 0%.

`CN1CCN=C1c1ccc(NC(=O)c2ccc(C(=O)Nc3ccc(C4=NCCN4C)cc3)cc2)cc1` yielded an IFI of 2.52%.

`Nc1ccc(-c2nc(-c3ccc(N)cc3)c3ccccc3n2)cc1` gave an IFI of 0%. For `CCOC(=O)c1c(NC(=O)c2ccccc2)sc2c(O)c(CN(CC)CC)ccc12` the value was 0%. Take `c1ccc(COCC[N+]2(Cc3ccccc3)CCCCC2)cc1`: the IFI stood at 0.769%. To `COc1cccc2c1C(=O)C1C(O)=C3C(=C(O)C1C2=O)CC(O)(C(C)=NN=C1CC(C)(C)N(O)C(C)(C)C1)CC3OC1CC(C)(N)C(O)CO1` (centres undefined) belongs 21.4%; to `O=C(NCc1cc2cc3c(cc2nc1Cl)OCO3)c1ccco1`, 0%. Take `c1ccc2c(c1)ccc1cc3cccc[n+]3cc12`: the IFI amounted to 9.09%. For `COc1ccc2[nH]c(=O)c(CN(C(=S)Nc3ccccc3OC)C3CCCC3)cc2c1` the value was 2.17%.

Take `COc1ccc(C2CC(=O)C3=C(C2)NC(C)=C(C(=O)OC(C)C)C3c2ccc(Cl)cc2Cl)cc1OC` (centres undefined): the IFI was determined as 4.71%.

The molecule `COc1ccc2cc(C)c3nnc(SCC(=O)N4CCN(C(=O)c5ccco5)CC4)n3c2c1` came in with an IFI of 3.54%. Turning to `CCCCCCC(=O)Oc1ccccc1-c1nc2cc(C)ccn2c1NC(C)(C)CC(C)(C)C`, the IFI was 2.13%.

`COc1ccc(C=NNc2cc(C)nc(-c3ccccc3)n2)cc1OC` had an IFI of 0%. The molecule `c1ccc(-c2ccccc2OCCNCCN2CCOCC2)cc1` returned an IFI of 0%. As to `COc1ccc(C2CC(=O)C3=C(C2)NC(C)=C(C(=O)OC(C)C)C3c2cccc(Br)c2)cc1OC` (centres undefined), the IFI was found to be 3.53%. For `COc1nc(Nc2ccc(C(C)C)cc2)nc(OC)n1` the value was 2.27%; for `Cc1cc(C)cc(Nc2cc(C)nc3nc(C)nn23)c1`, 0%; for `Cc1ccc(-n2c(SCc3cc(=O)n4ccccc4n3)nc3ccsc3c2=O)cc1C`, 0%.

`CCOc1ccccc1NC(=O)CN1CCN(C(=O)c2ccco2)CC1` showed an IFI of 0%. For `O=C(ON(C(=O)c1ccc(F)cc1)C1C2CC3CC(C2)CC1C3)c1ccc(F)cc1` (centres undefined) the value was 0%; for `COc1cccc(CC2(CO)CCCN(Cc3sc(N4CCCC4)nc3Cl)C2)c1` (centres undefined), 0%; for `Cc1ccc(NC(=O)N2CCN(C(=O)c3nc(-c4ccccc4)nc(C)c3C(=O)OC(C)C)CC2C)cc1` (centres undefined), 0.935%. To `COc1ccc(Nc2nc(NN=Cc3cccc([N+](=O)[O-])c3OC)nc(Nc3ccc([N+](=O)[O-])cc3)n2)cc1` belongs 6.49%.

As to `COc1cc(C(=O)Nc2nnc(-c3ccccc3)o2)cc(OC)c1OC`, the IFI worked out at 0%. To `CC(=O)Nc1ccc2c(c1)C(=O)N(C(CC(C)C)C(=O)NCC(=O)O)[C@@H](CCC(=O)OCc1ccccc1)C(=O)N2` (some centres undefined) belongs 2.44%. To `COc1ccccc1N1CCN(C2CCN(C3CCC(c4ccccc4)CC3)CC2)CC1` (centres undefined) belongs 3.45%; to `CC1=C(C(=O)OC2CCCC2)C(c2ccc(Cl)cc2)C2=C(CC(c3ccc(Cl)cc3)CC2=O)N1` (centres undefined), 4.65%; to `CCc1nc(N)nc(N)c1-c1ccc(Cl)cc1`, 4.12%.

Take `O=C1c2ccccc2C2=Nc3ccccc3SC(c3cccc(F)c3)C12` (centres undefined): the IFI is 3.23%. As to `CC(C)C(=O)NC(Nc1cccc([N+](=O)[O-])c1)C(Cl)(Cl)Cl` (centres undefined), the IFI came to 0%. On to `O=C(Nc1ccc2nc3n(c(=O)c2c1)CCCCC3)C(=O)N1CCN(c2ccccc2)CC1`, for which the IFI turned out to be 0%. For `COc1ccc(-c2cc(C(F)(F)F)n3ncc(C(=O)Nc4cccc(Cl)c4Cl)c3n2)cc1OC` the value was 0%. In turn, `Cc1cc(/C=C2\SC(=Nc3ccccc3)NC2=O)c(C)n1-c1ccccc1` yielded an IFI of 8.43%.

Molecule `CC(C)(C)CC(=O)NCCCCNc1ccnc2cc(Cl)ccc12` registered an IFI of 1.87%.

In the case of `Cc1cc(/C=C2\Sc3ccccc3N2C)[n+](C)c2ccccc12`, the IFI amounted to 20%. For `COc1cc(NC(C)CCCN(Cc2ccc(F)cc2)C(=O)C(c2ccccc2)c2ccccc2)c2ncccc2c1` (centres undefined) the value was 4.67%; for `Cc1sc2nc(C3CC3)n(C3CCN(C(=O)C4CC=CCC4)CC3)c(=O)c2c1C` (centres undefined), 0%; for `CC(C)CC(=O)OC1C(N2CCCCC2)c2c(ccc(/C=C/C(=O)N3CCCCC3)c2O)OC1(C)C` (centres undefined), 0%.

With `Cc1ccc(-c2cn3c([n+]2-c2ccc(C)cc2)CCCCC3)cc1`, the IFI worked out at 15.4%. In turn, `CCOC(=O)c1cnc2c(C)cccc2c1Nc1cccc(C(C)=O)c1` had an IFI of 0%. To `CCOc1ccc2nc(C)cc(Nc3cccc(O)c3)c2c1` belongs 1.06%. To `CCC(C)NC(=O)CN(c1cc(OC)ccc1OC)S(C)(=O)=O` (centres undefined) belongs 4%. To `Cc1ncc(CCCCN(C)C)c2c1[nH]c1ccccc12` belongs 11.1%; to `OC(CN1CCN(C/C=C/c2ccccc2)CC1)Cn1c2ccc(Cl)cc2c2cc(Cl)ccc21` (centres undefined), 0%; to `Cc1nc2ccc(Br)cc2c(O)c1CC(C)C`, 0%. Turning to `CCCCOc1ccc(N2C(N)=NC(N)=NC2(C)C)cc1`, the IFI turned out to be 0%.

Regarding `CC1=C(C(=O)OC2CCCCC2)C(c2cccc([N+](=O)[O-])c2)C2=C(CCCC2=O)N1` (centres undefined), the IFI was 1.45%. `COC(=O)CC(NS(=O)(=O)c1ccc(OC)cc1)c1ccc2c(c1)OCO2` (centres undefined) returned an IFI of 0%. To `CCCNC(=O)CCCCCSc1nc2ccccc2c(=O)n1-c1ccc(F)cc1` belongs 0.926%; to `CCOC(=O)c1ccc2nc(-c3ccccc3)cc(O)c2c1`, 15.7%. For `CC(C)C1=Nc2cc(C(N)=O)ccc2CN1C1CC1` the value was 4.94%; for `O=C(Nc1cccc(-c2nc3ccccc3[nH]2)c1)c1cc(=O)c2ccccc2o1`, 2.33%. On to `CCCCN(C(=O)c1ccccc1C)c1nc(-c2cc(OC)ccc2OC)cs1`, for which the IFI was 1.79%. As for `Nc1cc(C(=O)Nc2ccc(C3=NCCN3)cc2)ccc1C(=O)Nc1ccc(C2=NCCN2)cc1`, the IFI came out at 2.59%.
